In the supplement of paper PMC4604168 (melanoma cell lines):
The other results are listed elsewhere or left out. Single values are uncertain, as repeats are few or missing.

Legend:
Experiment in all cases: cell count relative to DMSO control; melanoma cells; higher = more viable cells
Settings in all cases: library dose: low library concentration; 72 h
MZ2-MEL = system: MZ2-MEL
MeWo = system: MeWo
RPMI7951 = system: RPMI7951
RVH-421 = system: RVH-421
SkMel28 = system: SkMel28
SkMel2 = system: SkMel2
SkMel30 = system: SkMel30
SkMel5 = system: SkMel5
UACC257 = system: UACC257
UACC62 = system: UACC62
WM115 = system: WM115
WM1716 = system: WM1716
WM1745 = system: WM1745
WM3526 = system: WM3526
WM3619 = system: WM3619
WM451Lu = system: WM451Lu
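Further: cell number obtained by counting DAPI-stained nuclei in high-throughput microscope images with image analysis software, screen run in 1,536-well plates.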

SMILES	cell count (MZ2-MEL)	cell count (MeWo)	cell count (RPMI7951)	cell count (RVH-421)	cell count (SkMel28)	cell count (SkMel2)	cell count (SkMel30)	cell count (SkMel5)	cell count (UACC257)	cell count (UACC62)	cell count (WM115)	cell count (WM1716)	cell count (WM1745)	cell count (WM3526)	cell count (WM3619)	cell count (WM451Lu)
C=C(c1ccc(C(=O)O)cc1)c1cc2c(cc1C)C(C)(C)CCC2(C)C [Bexarotene] + CC1(C)NC(=O)N(c2ccc([N+](=O)[O-])c(C(F)(F)F)c2)C1=O [nilutamide] (first compound 2 µM, partner dose 1 µM)	106%	99.3%	81.7%	103%	78.7%	86.7%	104%	79.8%	101%	102%	91.8%	85.4%	94.4%	89.9%	96.8%	88.5%
CN(c1ncccc1CNc1nc(Nc2ccc3c(c2)CC(=O)N3)ncc1C(F)(F)F)S(C)(=O)=O + CN1CCN(c2ccc3nc(-c4c(N)c5c(F)cccc5[nH]c4=O)[nH]c3c2)CC1 [Dovitinib] (first compound 0.08 µM, partner dose 0.1 µM)	91.2%	93.1%	79%	92.2%	106%	80.7%	88.2%			89.7%	87.8%	82.3%	80.4%	108%	112%	78.9%
C=C(c1ccc(C(=O)O)cc1)c1cc2c(cc1C)C(C)(C)CCC2(C)C [Bexarotene] + c1cc(-c2cnn3cc(-c4ccc(OCCN5CCCCC5)cc4)cnc23)ccn1 [Dorsomorphin] (first compound 2 µM, partner dose 0.4 µM)	99.1%	95.7%	88.2%	120%	84.4%	101%	93.6%	81.7%	86.1%	86.7%	91.5%	90.9%	79.5%	87.1%	105%	93.8%
CCCS(=O)(=O)Nc1ccc(F)c(C(=O)c2c[nH]c3ncc(Cl)cc23)c1F + COc1cc(N2CCC(N3CCN(C)CC3)CC2)ccc1Nc1ncc(Cl)c(Nc2ccccc2S(=O)(=O)C(C)C)n1 [NVP-TAE684] (first compound 0.08 µM, partner dose 0.08 µM)	85.2%	87.8%	99.3%	77%	84.1%	96.1%	96.9%	110%	83.1%	77.7%	95.3%	111%	99.6%	68.6%	107%	100%
C=C(c1ccc(C(=O)O)cc1)c1cc2c(cc1C)C(C)(C)CCC2(C)C [Bexarotene] + COC(=O)c1sccc1S(=O)(=O)Nc1ccc(Nc2ccccc2)cc1OC [GSK0660] (first compound 2 µM, partner dose 1 µM)	87.7%	101%	76.8%	110%	78.7%	88%	85.5%	86.7%	91.1%	83%	92.3%	94.5%	89.9%	90.5%	94.6%	83.9%
CS(=O)(=O)c1ccc(C(=O)Nc2ccc(Cl)c(-c3ccccn3)c2)c(Cl)c1 [vismodegib] + OCCn1cc(-c2cnc3nnn(Cc4ccc5ncccc5c4)c3n2)cn1 [PF04217903] (first compound 1 µM, partner dose 1 µM)	101%	104%	118%	99.3%	88.7%	91.9%	98.6%	102%	102%	109%	98.9%	106%	92.5%	100%	81.6%	96.5%
CS(=O)(=O)c1ccc(C(=O)Nc2ccc(Cl)c(-c3ccccn3)c2)c(Cl)c1 [vismodegib] + CO[C@@H]1[C@H](N(C)C(=O)c2ccccc2)C[C@H]2O[C@]1(C)n1c3ccccc3c3c4c(c5c6ccccc6n2c5c31)C(=O)NC4 [Midostaurin] (first compound 1 µM, partner dose 0.08 µM)	114%	82.9%	97.2%	99%	107%	88.7%	103%	92.4%	89%	92%	86.5%	114%	87.4%	109%	107%	83.3%
CS(=O)(=O)c1ccc(C(=O)Nc2ccc(Cl)c(-c3ccccn3)c2)c(Cl)c1 [vismodegib] + COc1cc(N2CCC(N3CCN(C)CC3)CC2)ccc1Nc1ncc(Cl)c(Nc2ccccc2S(=O)(=O)C(C)C)n1 [NVP-TAE684] (first compound 1 µM, partner dose 0.08 µM)	94.8%	96.1%	82.5%	122%	85.9%	91%	104%	88.5%	65.4%	93.3%	95.3%	95.5%	83.5%	104%	98.8%	86.8%
NC1(c2ccc(-c3nc4ccn5c(=O)[nH]nc5c4cc3-c3ccccc3)cc2)CCC1 + CC(C)CCN1c2nc(Nc3cc(F)c(O)c(F)c3)ncc2N(C)C(=O)C1C [BID1870] (first compound 0.4 µM, partner dose 0.2 µM)	96.4%	87.7%	96.4%	94.3%	77.4%	82.3%	84.1%	106%	84.5%	72.5%	70.5%	80.6%	94.4%	81.2%	83.1%	102%
NC1(c2ccc(-c3nc4ccn5c(=O)[nH]nc5c4cc3-c3ccccc3)cc2)CCC1 + Cc1nc(Nc2ncc(C(=O)Nc3c(C)cccc3Cl)s2)cc(N2CCN(CCO)CC2)n1 [dasatanib] (first compound 0.4 µM, partner dose 0.004 µM)	74.5%	80.7%	70.9%	73.1%	67.8%	77.4%	80.6%			73.3%	57.1%	86.9%	65.5%	68.2%	94.6%	90.1%
C=C(c1ccc(C(=O)O)cc1)c1cc2c(cc1C)C(C)(C)CCC2(C)C [Bexarotene] + O=C(Nc1ccccc1)c1cc([N+](=O)[O-])ccc1Cl [GW9662] (first compound 2 µM, partner dose 2 µM)	1.8%	84.7%	74.5%	84.8%	77.9%	85.7%	110%	84.8%	118%	82.7%	99.9%	69.7%	92.5%	80.6%	83.1%	83.4%
CN(c1ncccc1CNc1nc(Nc2ccc3c(c2)CC(=O)N3)ncc1C(F)(F)F)S(C)(=O)=O + COc1ccc(Cl)c(Nc2nc3ccccc3nc2NS(=O)(=O)c2cccc(NC(=O)C(C)(C)N)c2)c1 [XL147] (first compound 0.08 µM, partner dose 0.8 µM)	89.5%	98.6%	61.5%	92.4%	81.4%	87.6%	93.2%			64.5%	79.9%	79.3%	65.4%	91.9%	90.5%	47.2%
CCCS(=O)(=O)Nc1ccc(F)c(C(=O)c2c[nH]c3ncc(Cl)cc23)c1F + Cc1cc([N+](=O)[O-])ccc1NS(=O)(=O)c1cc(Cl)ccc1Cl [FH535] (first compound 0.08 µM, partner dose 1 µM)	85.6%	101%	106%	69.8%	55.2%	91.1%	90.5%	92.7%	104%	50.2%	80.8%	98.9%	89.1%	66.3%	72.5%	98%
CN(c1ncccc1CNc1nc(Nc2ccc3c(c2)CC(=O)N3)ncc1C(F)(F)F)S(C)(=O)=O + O=S(=O)(c1ccccc1)N(CC(F)(F)F)c1ccc(C(O)(C(F)(F)F)C(F)(F)F)cc1 [T0901317] (first compound 0.08 µM, partner dose 1.4 µM)	90.7%	92.1%	101%	58.7%	79.8%	81.5%	86.4%	69.2%	51.8%	71.9%	71.1%	83.5%	60.7%	67.9%	98.6%	60.9%
CS(=O)(=O)c1ccc(C(=O)Nc2ccc(Cl)c(-c3ccccn3)c2)c(Cl)c1 [vismodegib] + O=C(O)[C@@H]1[O][Sb](=[O])([O][Sb]2(=[O])[O][C@H]([C@H](O)CO)[C@H](O)[C@H](C(=O)O)[O]2)[O][C@H]([C@H](O)CO)[C@@H]1O [stibogluconate] (first compound 1 µM, partner dose 2 µM)	98.4%	117%	93%	106%	120%	101%	108%			99.8%	108%	108%	90.7%	117%	92.4%	95.8%
C=C(c1ccc(C(=O)O)cc1)c1cc2c(cc1C)C(C)(C)CCC2(C)C [Bexarotene] + O=C1NC(=O)/C(=C/c2ccc(-c3ccc(F)cc3O)o2)S1 [AS252424] (first compound 2 µM, partner dose 1 µM)	90.1%	94.1%	81.5%	91.4%	76.6%	82.6%	108%	91.6%	93.9%	98.8%	99.7%	65.4%	92.5%	94.2%	91.1%	72.5%
CS(=O)(=O)c1ccc(C(=O)Nc2ccc(Cl)c(-c3ccccn3)c2)c(Cl)c1 [vismodegib] + COc1ccc(-c2ccc3c(N4CCOCC4)nc(N4C[C@@H](C)O[C@@H](C)C4)nc3n2)cc1CO [KU0063794] (first compound 1 µM, partner dose 0.02 µM)	96%	105%	107%	88%	92.2%	86.3%	109%	98%	89.6%	105%	97.8%	96.3%	107%	108%	65.7%	109%
CS(=O)(=O)c1ccc(C(=O)Nc2ccc(Cl)c(-c3ccccn3)c2)c(Cl)c1 [vismodegib] + COCC[n+]1c2c(n(Cc3cnccn3)c1C)C(=O)c1ccccc1C2=O [YM155] (first compound 1 µM, partner dose 0.0004 µM)	1.4%	86.4%	61.7%	87.5%	89.2%	99.9%	69.8%			102%	89.7%	82.7%	97.3%	87.2%	86.4%	79.7%
CN(c1ncccc1CNc1nc(Nc2ccc3c(c2)CC(=O)N3)ncc1C(F)(F)F)S(C)(=O)=O + Oc1cc(-c2nc(-c3ccccc3)[nH]c2-c2ccncc2)ccc1Cl [L779450] (first compound 0.08 µM, partner dose 0.2 µM)	67.8%	80.2%	70.6%	104%	76.9%	66.8%	109%	80.8%	50.9%	73.2%	62%	94%	70.1%	79.9%	77.5%	57%
